# Results taken from the supplement of paper PMC10185492.
# The list shows a part of the results. Read counts after selection give these values, which scatter widely.
# System: SARS-CoV-2 3CLpro (nsp5)
# Test: substrate phage enrichment score (protease-eluted vs HEPES control, +1 offset) (ratio); higher = better cleaved substrate
# Conditions: selection round: 4; protease elution time: 15 min
# Description: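 Random heptapeptide substrate phage display (M13 pIII fusion, heptapeptide between an N-terminal biotinylated AviTag GLNDIFEAQKIEWHE and pIII; phages immobilised on streptavidin) eluted by cleavage with 50 nM protease in 20 mM HEPES at 37 °C. Selected phages were NGS sequenced, and the enrichment score is (reads in protease sample + 1)/(reads in HEPES blank-selection control + 1).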
row,Substance,substrate phage enrichment score
1,RKCILQS,> 59
2,ESRQGVC,> 39
3,TQGSVSH,> 93
4,DTAAHHH,0.494
5,SFAKDGP,8.25
6,AQAVMQS,> 23
7,NPQSPSP,> 29
8,APNMRSQ,0.192
9,SRPHFQG,> 42
10,EARAMLQ,> 22
11,RPQHLIK,> 21
12,LLLPKED,> 27
13,TWNYRPS,> 21
14,VTIDNGA,2.29
15,ITQHRFP,> 25
16,QDMRSVH,> 24
17,TPGRLEV,2.1
18,LTQRSNT,> 24
19,QVIPSVK,> 227
20,DPQRKFL,8.53
21,AHCTQLQ,266
22,DREEKMR,40.5
23,MSGITHG,2.21
24,STGEYRQ,0.194

row,Substance,substrate phage enrichment score
1,STQGGSA,1.15
2,QIDTMSR,> 27
3,SVYQTRD,> 21
4,STPAMMA,2.29
5,HCGDAAA,2
6,STTTREP,> 26
7,NASAHHH,1.53
8,TPPAHHH,3.8
9,LLNLPND,7
10,RQPDCTQ,0.148
11,NCSAPRS,0.2
12,SNQSLSC,2.14
13,TTAHHHH,0.292
14,ASRAGCG,> 32
15,EGTFNLD,0.281
16,GATAHHH,0.211
17,PPAHHHH,1.09
18,DRRDKLV,1.73
19,TKSTLSG,0.688
20,WKKTHLS,> 48
21,HCITVTR,14.7
22,GNRAEMS,2.29
23,EHPVWQE,2.25
24,TPGAMKS,> 50

row,Substance,substrate phage enrichment score
1,MSAAHHH,0.74
2,VCGEAYA,6.67
3,YPTNGNH,2.43
4,ECSKHVT,> 22
5,KASHSRA,0.069
6,SPSAHHH,0.3
7,AAPAMSH,> 24
8,PIYSPKS,1
9,IRTPGCR,> 22
10,NKSILTQ,2.12
11,AHLSTDG,> 26
12,STEMANP,2.45
13,TNLQSSW,19.5
14,RNRDLLI,> 26
15,TQTTTLQ,> 28
16,DRAAHHH,0.0976
17,NSSTTPR,0.667
18,HSELSFQ,4.83
19,PTESIKQ,0.234
20,RNTRIPT,> 34
21,CSDAHKP,1.75
22,LPHHGQQ,> 33
23,SATFHGQ,3.3
24,AALKHWQ,> 44

row,Substance,substrate phage enrichment score
1,LMRPHII,3.67
2,LGRGTKF,> 21
3,TGVTDPL,2.11
4,WRPHIII,1.6
5,PSQGKCP,> 29
6,IRPHIII,0.802
7,VNFPKSP,1.43
8,HNICDQR,1.33
9,TYRDPLP,> 21
10,SGSESLQ,0.273
11,KYSESRQ,0.12
12,HNVLQSG,> 28
13,EDVWVCR,4.4
14,TSESPGR,> 30
15,GERRNRD,> 25
16,EPQRKDG,3.6
17,PQTGPYA,> 28
18,CNAPQHF,3.83
19,RLHDLRR,3.6
20,AHATEAC,> 44
21,NESFQMT,5.2
22,PTSAAHH,> 21
23,IRSSQCT,> 30
24,CELITTS,2.25

row,Substance,substrate phage enrichment score
1,LEQKLIS,18.5
2,AWPKLGC,> 43
3,IAGEVRS,0.132
4,WRSQDMK,0.286
5,TRTCTLQ,> 26
6,PGGQRGC,> 87
7,CRRTLQW,2.27
8,NYGNLKQ,19.9
9,LRFFRRR,> 44
10,STVQPNS,2.88
11,KESVICG,7.95
12,TTKLQAS,> 110
13,HCQPGLM,> 27
14,RQTTRQH,> 36
15,RSFERLQ,> 78
16,TSGEKSC,4.83
17,MSQGGSA,10.5
18,EEQAARI,> 22
19,VEELGRS,8.57
20,AHFQGGS,2.95
21,DEVIRAT,2.14
22,AQTLKHH,> 26
23,AIRNSLC,5.5
24,TATIPQI,23

row,Substance,substrate phage enrichment score
1,PHASCSL,> 47
2,VKHRGGR,> 26
3,DPTLTCP,7
4,PHTSRMT,> 27
5,YKTRCQN,1.42
6,VYGCLMQ,> 28
7,HNRSNRE,> 28
8,TPTMCPR,3
9,ELRSCLC,1.49
10,SRDGSAA,> 23
11,GPRTNFQ,> 30
12,YTCPWRQ,0.421
13,CAPKSAR,6
14,YPDGSFK,3.47
15,LSSRLQS,> 164
16,SAAAQHQ,1.64
17,CIGVPKQ,0.56
18,VPSSCLQ,128
19,AKFQSCP,> 21
20,ESVELQA,> 68
21,TPGGEFN,5
22,TNLRMGP,1.89
23,SDKARTT,> 43
24,QAQQTAT,15

row,Substance,substrate phage enrichment score
1,SCIENSR,> 24
2,LNPRTKP,> 22
3,LTPSVRM,> 22
4,SQSNAAE,0.6
5,GHRQKHD,0.25
6,CQRNRSY,0.0833
7,SSGRHNR,0.714
8,ADHKMTS,0.353
9,AAECRHG,> 22
10,PVRAHLQ,> 47
11,IAATPSK,10.2
12,GSRVMLQ,> 32
13,SQGVKLQ,> 194
14,RQCKPVG,3.8
15,VPNELLK,> 24
16,PYLPTQP,> 35
17,RDVSSKG,> 21
18,RQDFQGG,7.88
19,RRNAEFY,> 31
20,EGTRCNN,19.7
21,ACGKTKV,6.17
22,VESLSAP,1.2
23,SAEPLRN,0.233
24,KETGATR,12

row,Substance,substrate phage enrichment score
1,VHSSAYG,2.38
2,CNPLTRR,3.83
3,DVGPENG,1.64
4,KTKMGRH,4.39
5,SPIEPQW,> 24
6,LLRDGCN,1
7,ISRLSYG,> 27
8,RTNPTSR,> 23
9,TSATILQ,> 44
10,TGEQGCT,> 47
11,SGQAQGQ,32
12,RQSSAQM,> 21
13,LSTTTQD,> 25
14,IQAAHHH,0.289
15,CPQANFQ,38.3
16,KTAAHHH,0.45
17,RVAPTRA,0.467
18,QLKPITD,23
19,LNGQEDH,> 29
20,QLSRPAV,0.667
21,PKAELKK,9
22,RKNAVLQ,> 276
23,STDWSTP,4.5
24,KEVQGPE,> 70

row,Substance,substrate phage enrichment score
1,NRAPRLQ,> 195
2,CNAWTKN,> 23
3,LDREAAH,> 22
4,ALTRPGQ,> 67
5,AETNCSR,2.07
6,HTMPNLQ,> 173
7,LPSGHSL,1.5
8,PCKFGWQ,> 36
9,KNSHCNV,3.07
10,TPRYVNQ,1.2
11,TERTTLQ,> 224
12,TKIPFYE,0.846
13,SPNRQNG,0.531
14,DTYTRMH,8.37
15,TLRRHPG,> 27
16,PGSCLKT,1.36
17,NAGHCWM,0.692
18,TEFTDSS,0.121
19,PETCRSM,10.8
20,ELNFQGG,2.5
21,ARHTELQ,71.5
22,MGSCVLH,32.5
23,GSNRPMH,10
24,VNAAHPQ,0.846

row,Substance,substrate phage enrichment score
1,TEDPTPG,13
2,LIPETPW,> 34
3,VLNPAPR,12
4,YNTAAHH,13.5
5,TTREPRG,9.33
6,EPHNLPS,5.75
7,RTRGQFG,14
8,QRSGACR,6.31
9,QLDRSRS,0.438
10,SPHLTCV,> 34
11,SHRHGSR,> 24
12,VLLQCDW,> 28
13,EQGDLYR,3.4
14,VEDQPGT,2.4
15,EVPTQQR,2.55
16,GTKPLEV,> 29
17,VTDFGLR,1.18
18,TQKNWPG,> 27
